# Measurements published in PubChem BioAssay AID720709 (National Center for Advancing Translational Sciences (NCATS), 2013).
# The whole screen tested about 360,000 compounds, of which about 520 (0.14%) were called active. This list was built around the results that the source calls inconclusive (neither active nor inactive); the mix of calls is not that of the screen. Calls follow the shape of the dose curve; as a rule, active = well fitted inhibition curve with a large enough effect; inconclusive = small, poorly fitted or top-dose-only effect; inactive = no such curve, though single readings can be large or run the other way. Potencies of inconclusive entries are left out as doubtful fits.
# Target: Rap guanine nucleotide exchange factor 3 (Homo sapiens) (UniProt O95398)
# Assay: qHTS for Antagonist of cAMP-regulated guanine nucleotide exchange factor 3 (EPAC1): primary screen; also: nearly all actives have a fitted effect of over 50% in size;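 as to activity change, negative = inhibition: plate controls were vehicle for no effect and positive control for full effect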
# Details: EPAC1 GEF assay, Rap1b-BODIPY-GDP exchange fluorescence; activity change, negative = inhibition: at 115 µM (top of the series)
# Potency is read from the fitted curve at half-maximal effect; tags tell the direction and shape of the fitted curve.
# Sequence of UniProt O95398 (O95398 whole entry, looked up): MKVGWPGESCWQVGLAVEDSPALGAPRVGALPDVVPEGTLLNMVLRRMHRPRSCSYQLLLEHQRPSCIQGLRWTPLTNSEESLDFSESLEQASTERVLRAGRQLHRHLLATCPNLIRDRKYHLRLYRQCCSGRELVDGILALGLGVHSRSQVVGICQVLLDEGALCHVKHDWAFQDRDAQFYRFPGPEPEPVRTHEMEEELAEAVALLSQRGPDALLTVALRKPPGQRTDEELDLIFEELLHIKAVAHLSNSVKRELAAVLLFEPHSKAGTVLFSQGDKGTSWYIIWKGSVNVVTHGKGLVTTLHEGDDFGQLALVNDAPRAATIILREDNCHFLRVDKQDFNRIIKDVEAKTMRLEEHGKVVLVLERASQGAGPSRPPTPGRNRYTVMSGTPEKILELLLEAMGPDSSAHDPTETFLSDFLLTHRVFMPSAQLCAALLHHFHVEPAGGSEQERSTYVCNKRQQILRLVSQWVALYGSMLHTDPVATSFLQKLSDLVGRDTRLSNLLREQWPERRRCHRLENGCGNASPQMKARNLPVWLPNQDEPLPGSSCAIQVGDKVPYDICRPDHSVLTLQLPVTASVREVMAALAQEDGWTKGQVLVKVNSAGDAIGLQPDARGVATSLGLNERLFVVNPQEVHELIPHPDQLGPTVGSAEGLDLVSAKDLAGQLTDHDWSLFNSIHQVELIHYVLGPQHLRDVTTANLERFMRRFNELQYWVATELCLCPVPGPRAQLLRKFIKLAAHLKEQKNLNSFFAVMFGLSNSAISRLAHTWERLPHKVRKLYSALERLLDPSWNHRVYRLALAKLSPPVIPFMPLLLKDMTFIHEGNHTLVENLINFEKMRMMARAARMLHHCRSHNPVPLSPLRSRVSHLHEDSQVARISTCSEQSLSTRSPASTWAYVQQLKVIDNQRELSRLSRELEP
Compound,Potency,"activity change, negative = inhibition"
Cc1ccc(NC(=O)CSCc2nc3c(nnn3Cc3ccc(F)cc3)c(=O)[nH]2)c(C)c1,"inconclusive [inhibitor, partial curve]",–
CCN1C(=NCCc2ccc(Br)cc2)N[C@@H](c2ccccc2)[C@H](C(=O)OC)[C@H]1C,–,inactive: 3.81%
N#C/C(=C\Nc1ccc2c(c1)OCCO2)c1nc(-c2ccccc2)cs1,"inconclusive [inhibitor, partial curve]",–
CCOc1cc(/C=N/NC(=O)CCn2nc(C)cc2C)ccc1O,"inconclusive [inhibitor, partial curve]",–
Cc1ccc(-c2nn(-c3ccccc3)cc2C(=O)Nc2ccc(C(=O)O)cc2)cc1,–,inactive: -8.69%
COc1ccc(C(=O)C2CCCN(C(=O)c3noc4c3CCCC4)C2)cc1F (stereo not drawn),"inconclusive [inhibitor, partial curve]",–
CCc1cc(=O)oc2cc(C)c(CN3CCCCC3)c(O)c12,"inconclusive [inhibitor, partial curve]",–
O=[N+]([O-])c1nn(-c2ccc3c(c2)OCCO3)n(O)c1=NCc1ccc(F)cc1,"inconclusive [inhibitor, single point]",–
COc1ccc2oc(=O)c(C(=O)N3CCN(c4ccccc4F)CC3)cc2c1,"inconclusive [inhibitor, partial curve, poor fit]",–
CC1CCCN(S(=O)(=O)c2ccc(NC(=O)CNC3CCCC3)cc2)C1 (stereo not drawn),"inconclusive [inhibitor, partial curve]",–
COc1ccccc1C(=O)Nc1nc2ccccc2[nH]1,"inconclusive [inhibitor, partial curve]",–
CC(C)(O)c1cc2ccc(C#CCCN3C(=O)c4ccccc4C3=O)cc2c(=O)o1,"inconclusive [inhibitor, single point]",–
COc1ccc(CN2CCN(Cc3c[nH]c4ccccc34)CC2CCO)c(F)c1 (stereo not drawn),"inconclusive [inhibitor, full curve, poor fit]",–
O=C(CSc1n[nH]c(-c2ccccc2)n1)c1ccc(O)c(O)c1,active: 35.5 µM,–
O=C(O)CCC(=O)N1N=C(c2c(-c3ccccc3)c3cc(Cl)ccc3[nH]c2=O)CC1c1cccs1 (stereo not drawn),"inconclusive [inhibitor, single point]",–
CC(C)Oc1ccc(C(CC(=O)O)c2ccc(F)cc2)cc1 (stereo not drawn),"inconclusive [inhibitor, full curve, poor fit]",–
CC1CCc2c(sc(NC(=O)c3ccco3)c2C(=O)O)C1 (stereo not drawn),–,inactive: -2.44%
COc1cc(/C=C2/C(=O)NN(c3ccc(C)c(Cl)c3)C2=O)cc([N+](=O)[O-])c1O,"inconclusive [inhibitor, partial curve]",–
